Source: patent US20240270821A1, “GIP/GLP1/GCG TRI-RECEPTOR AGONISTS AND USES THEREOF” (priority 2023, published 2024)
Like-named read-outs stand apart in the source and are kept apart here. At least one structure is not confirmed: it was looked up by name or label, or the drawing left a doubt. Starred links: 1 amine or outer side, 2 acyl side, 3 side chain; linkers in the order of their positions; H or OH if unused. Non-standard residues stand in square brackets, D forms with d. Groups on a side chain read outwards from the residue. No end group written: not given here. *: point of attachment. C20 diacid = O=C(O)CCCCCCCCCCCCCCCCCCC(=O)*; C18 diacid = O=C(O)CCCCCCCCCCCCCCCCC(=O)*; γGlu = O=C(O)[C@H](CCC(=O)[*:2])N[*:1]; εLys = N[C@@H](CCCCN[*:1])C(=O)[*:2]; αMe4Pal = C[C@](N)(Cc1ccncc1)C(=O)O; αMeY = C[C@](N)(Cc1ccc(O)cc1)C(=O)O; 4Pal = N[C@@H](Cc1ccncc1)C(=O)O; αMeL = CC(C)C[C@](C)(N)C(=O)O; Orn = NCCC[C@H](N)C(=O)O; AEEA = NCCOCCOCC(=O)O; Aib = CC(C)(N)C(=O)O

Legend:
Assay type in all cases: cell-based
hGIPR [1] = target: T1, hGIPR (Homo sapiens, UniProt P48546); test: Functional cAMP activity in the presence of 1% HSA; conditions: geometric mean of relative EC50, read-out: cAMP Rel EC50, hGIPR
T1 sequence (P48546 22-466): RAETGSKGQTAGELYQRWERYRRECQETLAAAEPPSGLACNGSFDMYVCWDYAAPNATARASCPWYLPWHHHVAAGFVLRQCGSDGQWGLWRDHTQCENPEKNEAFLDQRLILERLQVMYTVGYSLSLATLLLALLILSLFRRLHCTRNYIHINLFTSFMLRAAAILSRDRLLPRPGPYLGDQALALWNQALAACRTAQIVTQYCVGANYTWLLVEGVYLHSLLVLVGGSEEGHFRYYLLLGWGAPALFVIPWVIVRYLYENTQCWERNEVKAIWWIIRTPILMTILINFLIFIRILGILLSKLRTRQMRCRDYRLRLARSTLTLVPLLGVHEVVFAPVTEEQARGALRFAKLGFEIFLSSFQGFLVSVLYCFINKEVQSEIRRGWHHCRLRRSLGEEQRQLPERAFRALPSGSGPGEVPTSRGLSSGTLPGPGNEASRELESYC

hGIPR [2] = target: T1, hGIPR; test: Functional cAMP activation in the presence of 0.1% casein (no HSA); conditions: in the presence of 0.1% casein (no HSA)
hGLP-1R [3] = target: T2, hGLP-1R (Homo sapiens, UniProt P43220); test: Functional cAMP activity in the presence of 1% HSA; conditions: geometric mean of relative EC50, read-out: cAMP Rel EC50, hGLP-1R
hGLP-1R [4] = target: T2, hGLP-1R; test: Functional cAMP activation in the presence of 0.1% casein (no HSA); conditions: in the presence of 0.1% casein (no HSA)
human GcgR = human GcgR (Homo sapiens, UniProt P47871); test: Functional cAMP activity in the presence of 1% HSA; conditions: geometric mean of relative EC50, read-out: cAMP Rel EC50, hGcgR
hGcgR = hGcgR (Homo sapiens, UniProt P47871); test: Functional cAMP activation in the presence of 0.1% casein (no HSA); conditions: in the presence of 0.1% casein (no HSA)
[5] = HEK-293 clonal cell line, 1% HSA
[6] = geometric mean of relative EC50
[7] = HEK-293 clonal cell line, in the presence of 1% HSA
[8] = geometric mean, read-out: Relative cAMP EC50, hGIPR
[9] = geometric mean, read-out: Relative cAMP EC50, hGLP-1R
[10] = geometric mean, read-out: Relative cAMP EC50, hGcgR

T2 sequence (P43220 24-463): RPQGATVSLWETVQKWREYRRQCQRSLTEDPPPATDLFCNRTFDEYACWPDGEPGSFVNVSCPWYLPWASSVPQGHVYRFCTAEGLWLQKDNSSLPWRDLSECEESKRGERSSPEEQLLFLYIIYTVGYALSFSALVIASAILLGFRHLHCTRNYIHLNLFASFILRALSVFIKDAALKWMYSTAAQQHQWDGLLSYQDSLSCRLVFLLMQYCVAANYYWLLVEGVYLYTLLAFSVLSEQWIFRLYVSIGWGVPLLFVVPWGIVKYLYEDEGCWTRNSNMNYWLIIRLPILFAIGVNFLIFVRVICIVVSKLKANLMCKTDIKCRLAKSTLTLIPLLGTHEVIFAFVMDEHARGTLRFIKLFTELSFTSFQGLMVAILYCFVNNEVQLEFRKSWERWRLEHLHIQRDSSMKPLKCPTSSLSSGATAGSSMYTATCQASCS
human GcgR, sequence (P47871 26-477): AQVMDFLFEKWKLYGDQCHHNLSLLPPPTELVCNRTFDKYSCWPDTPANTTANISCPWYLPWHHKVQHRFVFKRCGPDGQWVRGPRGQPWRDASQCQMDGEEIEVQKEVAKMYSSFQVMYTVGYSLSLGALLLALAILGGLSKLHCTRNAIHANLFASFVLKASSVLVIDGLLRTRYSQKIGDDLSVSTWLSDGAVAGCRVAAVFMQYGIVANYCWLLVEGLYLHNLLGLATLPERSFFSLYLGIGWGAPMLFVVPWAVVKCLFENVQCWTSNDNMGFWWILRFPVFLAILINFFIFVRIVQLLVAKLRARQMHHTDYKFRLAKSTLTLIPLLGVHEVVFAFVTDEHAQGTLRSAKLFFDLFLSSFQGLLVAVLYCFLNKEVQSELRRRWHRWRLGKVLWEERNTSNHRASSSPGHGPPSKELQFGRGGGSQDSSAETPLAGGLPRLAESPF
hGcgR, sequence (P47871 26-477): as above

Row | Compound | EC50 (hGIPR [1]; [5]) [nM] | EC50 (hGIPR [2]; [6]) [nM] | EC50 (hGLP-1R [3]; [5]) [nM] | EC50 (hGLP-1R [4]; [6]) [nM] | EC50 (human GcgR; [5]) [nM] | EC50 (hGcgR; [6]) [nM] | EC50 (hGIPR [1]; [7]) [nM] | EC50 (hGIPR [2]; [8]) [nM] | EC50 (hGLP-1R [3]; [7]) [nM] | EC50 (hGLP-1R [4]; [9]) [nM] | EC50 (human GcgR; [7]) [nM] | EC50 (hGcgR; [10]) [nM] | EC50 (hGIPR [1]; HEK-293 clonal cells expressing hGIPR, in the presence of 1% HSA) [nM] | EC50 (hGLP-1R [3]; HEK-293 clonal cells expressing hGLP-1R, in the presence of 1% HSA) [nM] | EC50 (human GcgR; HEK-293 clonal cells expressing hGcgR, in the presence of 1% HSA) [nM]
1 | CC[C@H](C)[C@H](NC(=O)[C@H](Cc1ccccc1)NC(=O)[C@H](CCCN)NC(=O)C(C)(C)NC(=O)[C@H](CCC(N)=O)NC(=O)[C@H](C)NC(=O)[C@H](CCCCNC(=O)CC[C@H](NC(=O)COCCOCCNC(=O)CCCCCCCCCCCCCCCCCCC(=O)O)C(=O)O)NC(=O)[C@H](CCCN)NC(=O)[C@H](CC(=O)O)NC(=O)[C@H](CC(C)C)NC(=O)[C@](C)(CC(C)C)NC(=O)[C@@H](NC(=O)[C@](C)(CO)NC(=O)[C@H](Cc1ccncc1)NC(=O)[C@H](CC(=O)O)NC(=O)[C@H](CO)NC(=O)[C@@H](NC(=O)[C@](C)(Cc1ccccc1F)NC(=O)[C@@H](NC(=O)CNC(=O)[C@H](CCC(N)=O)NC(=O)C(C)(C)NC(=O)[C@@H](N)Cc1ccc(O)cc1)[C@@H](C)O)[C@@H](C)O)[C@@H](C)CC)C(=O)N[C@H](CCC(=O)O)C(=O)N[C@@](C)(Cc1ccc(O)cc1)C(=O)N[C@@H](CC(C)C)C(=O)N[C@@H](CCC(N)=O)C(=O)N[C@@H](CCC(=O)O)C(=O)NCC(=O)NCC(=O)N1CCC[C@H]1C(=O)N[C@@H](CO)C(=O)N[C@@H](CO)C(=O)NCC(=O)N[C@@H](CCC(=O)O)C(=O)N1CCC[C@H]1C(=O)N1CCC[C@H]1C(=O)N1CCC[C@H]1C(=O)N[C@@H](CCC(=O)O)C(=O)NCC(=O)N[C@H](C(=O)N[C@@H](CCC(=O)O)C(=O)N[C@@H](CCC(=O)O)C(N)=O)[C@@H](C)O [Example 655] | 8.86 | 0.0533 | 76.9 | 0.351 | 883 | 3.79 |  |  |  |  |  |  |  |  | 
2 | CC[C@H](C)[C@H](NC(=O)[C@H](Cc1ccccc1)NC(=O)[C@H](CCCN)NC(=O)C(C)(C)NC(=O)[C@H](CCC(N)=O)NC(=O)[C@H](C)NC(=O)[C@H](CCCCNC(=O)CC[C@H](NC(=O)[C@@H](N)CCCCNC(=O)CCCCCCCCCCCCCCCCCCC(=O)O)C(=O)O)NC(=O)[C@H](CCCN)NC(=O)[C@H](CC(=O)O)NC(=O)[C@H](CC(C)C)NC(=O)[C@](C)(CC(C)C)NC(=O)[C@@H](NC(=O)[C@](C)(CO)NC(=O)[C@H](Cc1ccncc1)NC(=O)[C@H](CC(=O)O)NC(=O)[C@H](CO)NC(=O)[C@@H](NC(=O)[C@](C)(Cc1ccccc1F)NC(=O)[C@@H](NC(=O)CNC(=O)[C@H](CCC(N)=O)NC(=O)C(C)(C)NC(=O)[C@@H](N)Cc1ccc(O)cc1)[C@@H](C)O)[C@@H](C)O)[C@@H](C)CC)C(=O)N[C@H](CCC(=O)O)C(=O)N[C@@](C)(Cc1ccc(O)cc1)C(=O)N[C@@H](CC(C)C)C(=O)N[C@@H](CCC(N)=O)C(=O)N[C@@H](CCC(=O)O)C(=O)NCC(=O)NCC(=O)N1CCC[C@H]1C(=O)N[C@@H](CO)C(=O)N[C@@H](CO)C(=O)NCC(=O)N[C@@H](CCC(=O)O)C(=O)N1CCC[C@H]1C(=O)N1CCC[C@H]1C(=O)N1CCC[C@H]1C(=O)N[C@@H](CCC(=O)O)C(=O)NCC(=O)N[C@H](C(=O)N[C@@H](CCC(=O)O)C(=O)N[C@@H](CCC(=O)O)C(N)=O)[C@@H](C)O [Example 656] | 7.13 | 0.0269 | 119 | 0.318 | 662 | 2.04 |  |  |  |  |  |  |  |  | 
3 | CC[C@H](C)[C@H](NC(=O)[C@H](Cc1ccccc1)NC(=O)[C@H](CCCN)NC(=O)C(C)(C)NC(=O)[C@H](CCC(N)=O)NC(=O)[C@H](C)NC(=O)[C@H](CCCCNC(=O)CC[C@H](NC(=O)[C@@H](CCC(=O)O)NC(=O)CCCCCCCCCCCCCCCCCCC(=O)O)C(=O)O)NC(=O)[C@H](CCCN)NC(=O)[C@H](CC(=O)O)NC(=O)[C@H](CC(C)C)NC(=O)[C@](C)(CC(C)C)NC(=O)[C@@H](NC(=O)[C@](C)(CO)NC(=O)[C@H](Cc1ccncc1)NC(=O)[C@H](CC(=O)O)NC(=O)[C@H](CO)NC(=O)[C@@H](NC(=O)[C@](C)(Cc1ccccc1F)NC(=O)[C@@H](NC(=O)CNC(=O)[C@H](CCC(N)=O)NC(=O)C(C)(C)NC(=O)[C@@H](N)Cc1ccc(O)cc1)[C@@H](C)O)[C@@H](C)O)[C@@H](C)CC)C(=O)N[C@H](CCC(=O)O)C(=O)N[C@@](C)(Cc1ccc(O)cc1)C(=O)N[C@@H](CC(C)C)C(=O)N[C@@H](CCC(N)=O)C(=O)N[C@@H](CCC(=O)O)C(=O)NCC(=O)NCC(=O)N1CCC[C@H]1C(=O)N[C@@H](CO)C(=O)N[C@@H](CO)C(=O)NCC(=O)N[C@@H](CCC(=O)O)C(=O)N1CCC[C@H]1C(=O)N1CCC[C@H]1C(=O)N1CCC[C@H]1C(=O)N[C@@H](CCC(=O)O)C(=O)NCC(=O)N[C@H](C(=O)N[C@@H](CCC(=O)O)C(=O)N[C@@H](CCC(=O)O)C(N)=O)[C@@H](C)O [Example 657] | 6.43 | 0.0393 | 74.5 | 0.429 | 226 | 0.891 |  |  |  |  |  |  |  |  | 
4 | CC[C@H](C)[C@H](NC(=O)[C@H](CC(C)C)NC(=O)[C@H](Cc1ccc(O)cc1)NC(=O)[C@H](CCC(=O)O)NC(=O)[C@@H](NC(=O)[C@H](Cc1ccccc1)NC(=O)[C@H](C)NC(=O)[C@](C)(Cc1ccncc1)NC(=O)[C@H](CCC(N)=O)NC(=O)[C@H](C)NC(=O)[C@H](CCCCNC(=O)CC[C@H](NC(=O)CC[C@H](NC(=O)CCCCCCCCCCCCCCCCC(=O)O)C(=O)O)C(=O)O)NC(=O)[C@H](CCCCN)NC(=O)[C@H](CC(=O)O)NC(=O)[C@H](CC(C)C)NC(=O)[C@](C)(CC(C)C)NC(=O)[C@H](CCC(N)=O)NC(=O)[C@H](CO)NC(=O)[C@H](Cc1ccncc1)NC(=O)[C@H](CC(=O)O)NC(=O)[C@H](CO)NC(=O)[C@@H](NC(=O)[C@H](Cc1ccccc1)NC(=O)[C@@H](NC(=O)CNC(=O)[C@H](CCC(N)=O)NC(=O)C(C)(C)NC(=O)[C@@H](N)Cc1ccc(O)cc1)[C@@H](C)O)[C@@H](C)O)[C@@H](C)CC)C(=O)N[C@@H](C)C(=O)NCC(=O)NCC(=O)N1CCC[C@H]1C(=O)N[C@@H](CO)C(=O)N[C@@H](CO)C(=O)NCC(=O)N[C@@H](CCC(=O)O)C(=O)N1CCC[C@H]1C(=O)N1CCC[C@H]1C(=O)N1CCC[C@H]1C(=O)N[C@@H](CCC(=O)O)C(=O)NCC(=O)N[C@@H](CO)C(=O)O [Example 970] |  |  |  |  |  |  | 20.1 | 0.178 | 186 | 2 | 809 | 5.24 |  |  | 
5 | H-Y[Aib]QGTFTSDFSK[αMeL]LDKK([εLys-εLys-γGlu-C20 diacid])AQ[Aib]AFIEYLLAGGPSSGEPPPSGE-NH2 [Example 405] | 32.1 | 0.28 | 285 | 1.48 | 2530 | 15.5 |  |  |  |  |  |  |  |  | 
6 | H-Y[Aib]QGTFTSDYSKLLDKK([AEEA-γGlu-C20 diacid])AQ[Aib]AFVQWLIEGGPSSGEPPPSEG-NH2 [Example 316] |  |  |  |  |  |  |  | 0.259 |  | 0.362 |  | 5.22 | 102 | 78.7 | 2090
7 | H-Y[Aib]QGTFTSD[4Pal]SQ[αMeL]LDKK([AEEA-γGlu-C18 diacid])AQ[Aib]AFIEYLLE[dA]GPSS[Aib]APPPSGT [Example 825] |  |  |  |  |  |  | 39.3 | 0.12 | 303 | 3.4 | 1810 | 5.53 |  |  | 
8 | H-Y[Aib]QGTFTSD[4Pal]SQ[αMeL]LDKK([γGlu-γGlu-C18 diacid])AQ[αMe4Pal]AFIEYLIAGGPSSGEPPPSGSGE [Example 971] |  |  |  |  |  |  | 30.2 | 0.298 | 294 | 3.46 | 1340 | 8.26 |  |  | 
9 | H-Y[Aib]QGTFTSD[4Pal]SQ[αMeL]LD[Orn]K([dE-γGlu-C18 diacid])AQ[αMe4Pal]QFIQ[αMeY]LIA[Aib]GPSSGEPPPSGGGE-NH2 [Example 1128] |  |  |  |  |  |  | 3.18 | 0.0378 | 52.8 | 0.486 | 869 | 9.88 |  |  | 
10 | H-Y[Aib]QGTFTSD[4Pal]SQ[αMeL]LD[Orn]K([γGlu-Glu-C18 diacid])AQ[αMe4Pal]AFIE[αMeY]LIEGGPSSGEPPPSGSEE-NH2 [Example 1028] |  |  |  |  |  |  | 157 | 0.189 | 986 | 1.34 | 3910 | 5.77 |  |  | 
